# The campaign covered roughly 120,000 compounds. About 5,300 (4.4%) were called active. Inconclusive means that the source gave no clear call. Such entries were picked first, then a sample of the others. Calls follow the shape of the dose curve; as a rule, active = well fitted inhibition curve with a large enough effect; inconclusive = small, poorly fitted or top-dose-only effect; inactive = no such curve, though single readings can be large or run the other way. Potencies beside an inconclusive call are fits to weak or partial responses and may not hold up.
# Assay: qHTS Primary assay for Inhibitors of Plasmodium falciparum Dd2 growth in vitro; also: nearly all actives have a fitted effect of over 65% in size;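 as to activity, negative = inhibition: plate controls were DMSO vehicle for no effect and reference drug for full effect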
# Settings: P. falciparum Dd2 growth, SYBR Green, 72 h; activity, negative = inhibition: at 28.9 µM (top of the series) unless noted; series mostly up to 28.9 µM
# Summary of the method: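 Infected erythrocytes (Dd2, 0.3% parasitemia, 2.5% hematocrit final) are added to compound in RPMI-1640/Albumax II medium, grown 72 h at 37C in low oxygen, then lysed with saponin/Triton-X containing SYBR Green and read by fluorescence.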
# Potency is read from the fitted curve at half-maximal effect; tags tell the direction and shape of the fitted curve.
Structure (SMILES),Potency,"activity, negative = inhibition",outcome
COc1cc(-c2cc3n(C)c(C)c(CCC(=O)O)c(=O)n3n2)cc(OC)c1OC,"inconclusive: 7.94 µM [inhibitor, partial curve]",,
CCc1ccccc1Nc1sc(C(=O)c2cccc(OC)c2)c(N)c1S(=O)(=O)c1ccccc1,active: 11.2 µM,,
CC(=O)N1CCC2(CC1)N(CC1CC1)C(=O)CS2=O (stereo not drawn),,inactive: 2.95%,
COC1CCC(C(=O)N2CCCn3nc(C)c(-c4ccccc4-c4ccccc4)c32)CC1 (stereo not drawn),,inactive: -5.37% [at 44.1 µM],
COC(=O)c1c(NC(=O)/C(C#N)=C/c2ccccc2)sc2c1C(C(=O)OC)CC2 (stereo not drawn),"inconclusive: 0.0112 µM [inhibitor, full curve, poor fit]",,
O=C1CN=C(c2ccccc2)c2cc(Cl)ccc2N1Cc1ccc(Cl)cc1,active: 8.91 µM,,
CC(CCc1ccccc1)NC(=O)CN1C(=O)NC(c2ccccc2Cl)C2=C1COC2=O (stereo not drawn),"inconclusive: 12.6 µM [inhibitor, single point]",,
COc1ccc(CN2CCN(c3nc(C)ccc3C#N)CC2CCO)cc1C (stereo not drawn),"inconclusive: 17.8 µM [inhibitor, single point]",,
CCC1=C(c2ccc(C)cc2)S(=O)(=O)N=C1N1CCC(C(=O)NCc2ccc(N(C)C)cc2)CC1,"inconclusive: 7.94 µM [inhibitor, partial curve]",,
CCN1C(=O)c2ccccc2Sc2ccc(NC(=O)Nc3cccc([N+](=O)[O-])c3C)cc21,"inconclusive: 11.2 µM [inhibitor, single point]",,
c1ccc(CN2CC(CNc3cccnc3)C3(C2)CN(c2ccccc2)C3)cc1 (stereo not drawn),"inconclusive: 3.16 µM [inhibitor, partial curve, poor fit]",,
COc1ccc(N(C(=O)c2ccc(C(C)(C)C)cc2)S(=O)(=O)c2ccc(Cl)cc2)cc1,"inconclusive: 17.8 µM [inhibitor, single point]",,
COc1ccc(CNC(=O)c2cnn3c(C)c(Cc4c(F)cccc4Cl)c(C)nc23)cc1,"inconclusive: 17.8 µM [inhibitor, single point]",,
CCCNC(=O)N(C1CCOCC1)C1CCN(S(=O)(=O)c2ccccc2CC)CC1,,inactive: -22.1%,
Cc1nc(CN(C)C(=O)c2coc(COc3ccc(F)cc3Cl)n2)cs1,,inactive: -11.7%,
O=C(NCCCN1CCN(c2cccc(Cl)c2)CC1)c1cnn(-c2ccc(F)cc2)c1-n1cccc1,"inconclusive: 10 µM [inhibitor, single point]",,
CSc1nccc(-c2ccccc2CO)n1,,inactive: -10.5%,
Cc1cccc(CN2CCc3c(sc4ncnc(N(C)C)c34)C2)c1,"inconclusive: 3.55 µM [inhibitor, partial curve, poor fit]",,
COc1ccccc1CNC(=O)[C@H]1CCC[C@H]1NC(=O)c1ccncc1,,inactive: 13.7%,
CNC(=O)[C@@H](C1CCCCC1)N1CCC[C@H]1C(=O)N1CCOCC1,,inactive: -14.7% [at 44.1 µM],
O=C1CCN(S(=O)(=O)c2ccccc2)CCCC(C(=O)NCc2cc(F)cc(F)c2)CCN1 (stereo not drawn),"inconclusive: 8.91 µM [inhibitor, single point]",,

Structure (SMILES),Potency,"activity, negative = inhibition",outcome
O=C(c1ccccc1F)N1CCC2(C1)C(=O)N(CCc1ccccc1)c1ccccc12 (stereo not drawn),"inconclusive: 17.8 µM [inhibitor, single point]",,
O=C(c1cccc(C(F)(F)F)c1)N1CCC2(CC1)CC(O)CCO2 (stereo not drawn),"inconclusive: 3.98 µM [inhibitor, single point]",,
Cn1cc(C(=O)N2CCC3(CC2)NCCc2c3[nH]c3ccccc23)cn1,"inconclusive: 8.91 µM [inhibitor, single point]",,
Cc1ccc(C(=O)N2CCc3c(nc4cc(-c5ccccc5)[nH]n4c3=O)C2)cn1,"inconclusive: 1.12 µM [inhibitor, partial curve, poor fit]",,
COC(=O)c1ccc(Cn2nnc3c(=O)[nH]c(C4CCCN(S(=O)(=O)c5ccccc5Cl)C4)nc32)cc1 (stereo not drawn),active: 7.94 µM,,
CCn1cc(S(=O)(=O)NCCc2ncc(C)n2Cc2ccc(F)cc2)cn1,active: 6.31 µM,,
Cc1cc(-c2ccc(C)c(S(=O)(=O)N3CCOc4ccc(Cl)cc43)c2)on1,"inconclusive: 10 µM [inhibitor, single point]",,
CN(CCc1ccccn1)C(=O)CCC[C@@H]1[C@H]2CCCN3CCC[C@@H](CN1C)[C@@H]23,,,inactive
Fc1ccc(OC2CN(CC3CCCCC3)C2)cc1F,"inconclusive: 0.447 µM [inhibitor, full curve, poor fit]",,
CC(C)(C)OC(=O)N1CCC(c2c(C(=O)N3CCN(C(=O)c4ccco4)CC3)cnn2-c2ccc(F)cc2F)CC1,"inconclusive: 12.6 µM [inhibitor, single point]",,
CCOc1ccc(-n2nc3ccc(NC(=O)Cc4ccccc4)cc3n2)cc1,"inconclusive: 3.16 µM [inhibitor, partial curve, poor fit]",,
COc1ccc(-c2nc3c(c(=O)[nH]2)CCN(C(=O)c2ccc(OC)cc2OC)C3)cc1,"inconclusive: 12.6 µM [inhibitor, single point]",,
Cc1nc2ccc(S(=O)(=O)N(CC(=O)Nc3ccc(F)cc3)Cc3ccccc3)cc2s1,"inconclusive: 17.8 µM [inhibitor, partial curve, poor fit]",,
Cc1noc(C)c1S(=O)(=O)N1CCOC[C@H](Oc2ccc(C(F)(F)F)cc2)C1,,inactive: -1.43% [at 44.1 µM],
O=C(N[C@@H]1CN(Cc2cc(F)cc(F)c2)C[C@H]1CO)c1ccccc1,active: 10 µM,,
CCn1ccc(C(=O)N2CCc3nc(NC)nc(C(=O)N4CCCC4)c3C2)n1,,inactive: -11.2%,
Cc1ncc(S(C)(=O)=O)c(NCc2nnc3ccccn23)n1,,inactive: 7.72%,
COc1ccc(C2Cn3nnc(C(=O)N4CCN(C(=O)Cc5ccc(F)cc5)CC4)c3CO2)cc1 (stereo not drawn),"inconclusive: 11.2 µM [inhibitor, single point]",,
CCOc1cc(C(=O)Nc2ccc3c(c2)n(C)c(=O)c(=O)n3C)cc(OCC)c1OCC,"inconclusive: 1.78 µM [inhibitor, partial curve, poor fit]",,
CCOc1ccc(-n2c(SCC(=O)Nc3ccc(CC)cc3)nc3c(oc4ccccc43)c2=O)cc1,"inconclusive: 17.8 µM [inhibitor, single point]",,
Cc1nc(-c2ccc(F)cc2)n(CC(=O)Nc2ccccc2)c(=O)c1CCO,"inconclusive: 11.2 µM [inhibitor, single point]",,

Structure (SMILES),Potency,"activity, negative = inhibition",outcome
Cn1cccc1CN1CCn2c(nnc2-c2ccccc2)C1,"inconclusive: 2 µM [inhibitor, full curve, poor fit]",,
COC[C@@H]1CN(C(=O)Cc2c[nH]c3ccccc23)C[C@H]1c1nc(C)no1,"inconclusive: 17.8 µM [inhibitor, single point]",,
O=C(Nc1ccc([C@H]2OCC(=O)N(CC3CCCCC3)[C@@H]2CO)cc1)c1ccccn1,active: 11.2 µM,,
COc1ccc(CNC(=O)C2CCN(C(=O)N3CCOc4ccc(Cl)cc43)CC2)cc1,"inconclusive: 14.1 µM [inhibitor, partial curve, poor fit]",,
NC(Cc1ccccc1)C(=O)N1CCN(c2ccccn2)CC1 (stereo not drawn),"inconclusive: 2.24 µM [inhibitor, partial curve, poor fit]",,
O=C(c1ccc(Cl)s1)N1CCC(N(C(=O)C2CC2)C2CCOCC2)CC1,"inconclusive: 7.08 µM [inhibitor, partial curve]",,
CCCCC(=O)Nc1cc(NC(=O)C(C)NS(C)(=O)=O)ccc1OC (stereo not drawn),,inactive: -17.1%,
COC1CN(c2cccc(F)c2)C12CCN(C(=O)c1sc(C)nc1C)CC2 (stereo not drawn),"inconclusive: 12.6 µM [inhibitor, partial curve, poor fit]",,
Cn1ccnc1-c1ccc(N2CCC(CO)(CCOc3ccccc3)CC2)nn1,"inconclusive: 12.6 µM [inhibitor, single point]",,
COCCNc1ncccc1-c1noc([C@@H]2CCCN2Cc2ccccn2)n1,"inconclusive: 1.12 µM [inhibitor, full curve, poor fit]",,
CC(C)NC(=O)NC[C@H]1C[C@@H]2CCN1C[C@@H]2CN1CCN(C)CC1,,inactive: 25.4% [at 44.1 µM],
Cc1cccc(NC(=O)C2CCN(S(=O)(=O)c3c(C)noc3/C=C/c3ccco3)CC2)c1,"inconclusive: 10 µM [inhibitor, single point]",,
COc1ccccc1CNC(=O)C[C@@H]1[C@H](O)CCC2[C@](C)(CO)[C@H](OC(=O)NC3CCCCC3)CC[C@]21C (stereo partly drawn),"inconclusive: 10 µM [inhibitor, partial curve, poor fit]",,
Cc1cccc(CNC(=O)c2nnn3cc(C)[nH]c(=O)c23)c1,"inconclusive: 0.631 µM [inhibitor, full curve, poor fit]",,
COCCOC(=O)C1=C(C)N=C2SC=C(CC(=O)NC3CC3)N2C1c1ccccc1C (stereo not drawn),"inconclusive: 1.78 µM [inhibitor, partial curve, poor fit]",,
Cc1nc(N2CCN(C(=O)COc3ccc(F)cc3)CC2)cc(C(F)(F)F)n1,"inconclusive: 17.8 µM [inhibitor, single point]",,
CCN1C(=O)C2CC3(CCN(Cc4ccc(F)c(F)c4)CC3)CN2C1=O (stereo not drawn),"inconclusive: 17.8 µM [inhibitor, single point]",,
CCC(=O)N1CCc2cc(Br)cc(S(=O)(=O)N3CCN(c4cc(C)ccc4C)CC3)c21,,inactive: 5.47%,
COc1cccc(CNC(=O)Cn2cccc2-c2nc(-c3ccc(OC)c(F)c3)no2)c1,"inconclusive: 5.62 µM [inhibitor, partial curve, poor fit]",,
COc1ccccc1N1CCN(c2ncccc2CNC(=O)C2COC(=O)N2)CC1 (stereo not drawn),,inactive: 16.9%,
COc1ccc(Oc2nc3c(c(=O)n(C)c(=O)n3C)n2Cc2ccc(Cl)cc2Cl)cc1,"inconclusive: 14.1 µM [inhibitor, single point]",,

# From PubChem BioAssay AID1347417 (National Center for Advancing Translational Sciences (NCATS), 2020)
